# Experimental data reported in paper PMC4242493.
# Some of the results follow. The list includes weakly bound sequences.
# Target: MaxL homodimer (UniProt P61244)
# Experiment: universal protein-binding microarray (PBM)
# Settings: PBS-based mixture, 10 nM His-tagged protein dimer, 2% milk, 200 ng/uL BSA, 50 ng/uL salmon testes DNA, 0.02% TX-100; detection with Alexa 488 anti-His …; high values mean tight binding; most listed sequences are background and not binding sites; double strand, one strand shown
# Sequence of UniProt P61244 (P61244 whole entry): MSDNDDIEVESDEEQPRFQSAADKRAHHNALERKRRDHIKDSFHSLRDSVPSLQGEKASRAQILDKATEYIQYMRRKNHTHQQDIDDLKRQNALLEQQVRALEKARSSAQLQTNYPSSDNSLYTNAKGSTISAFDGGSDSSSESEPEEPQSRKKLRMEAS
row,Sequence,binding signal (normalized occupancy)
1,ATTTGACC,0.0728
2,CATCCTCC,0.0798
3,GCGCCAGA,0.067
4,ACCACAGA,0.0782
5,AAAACATA,0.0798
6,ACGGGCGC,0.0712
7,GAGATTGA,0.0786
8,ACCGCATA,0.0828
9,TCACGAGA,0.0875
10,GATGAGCC,0.0743
11,AGGAATCG,0.0901
12,ATCCGAGG,0.0714
13,ATACTTAA,0.0756
14,AAAAGTTA,0.0747
15,CGTTTCAG,0.0692
16,AAAGCTTA,0.0697
17,ATGGACCG,0.0753
18,GTTACACA,0.0807
19,AGGATCTA,0.0756
20,AAATTTAC,0.0697
21,TAGTAAAA,0.0779
22,GGCAACAC,0.0769
23,CGCCAAAG,0.0704
24,ATCGAGGA,0.0734
25,GCACCCGC,0.0769

row,Sequence,binding signal (normalized occupancy)
1,CCACATGG,0.227
2,AACGTATT,0.0745
3,ACCGGCAC,0.079
4,ATAGCTTA,0.0699
5,ACGCCGGA,0.0718
6,AAAATTTG,0.0688
7,CCAGACCC,0.0772
8,CAATGATC,0.0797
9,CTCACTCC,0.0728
10,AACCTGCT,0.0743
11,ACCGTGGG,0.0732
12,TTAATAAA,0.0743
13,GATCCTCA,0.0779
14,TAGCCCGA,0.066
15,AATTAATG,0.0696
16,TATTGTCA,0.0833
17,CAACATAC,0.079
18,CGACCGCC,0.0733
19,CAATATAA,0.0773
20,CTACTTGC,0.0752
21,AGTGGGCC,0.0729
22,CCCACCAA,0.0738
23,CCTCACGC,0.0905
24,ATTCTTGG,0.074
25,GCAGTGGC,0.0659

row,Sequence,binding signal (normalized occupancy)
1,AAAATGAG,0.0781
2,AACATCTG,0.0767
3,CCATTGCA,0.0774
4,AAAGCTAT,0.0735
5,CTCAGGTA,0.0773
6,AATCAAAG,0.074
7,AGTGCAAA,0.0754
8,ACTTTCAT,0.0735
9,TATTTACA,0.0806
10,AATAGACA,0.0735
11,ATCACCGC,0.0749
12,ACTTAGCG,0.0738
13,CAGATTTC,0.0684
14,GCGCAGTA,0.071
15,GGTCGAGA,0.0728
16,CCTTCGCA,0.0743
17,GCCCCCTA,0.0701
18,CAGGCCTG,0.0765
19,CTGTGATC,0.0728
20,ATTCCCTG,0.0741
21,ATAAAGGG,0.0707
22,ATGTGGTG,0.0894
23,CGATGCGC,0.0736
24,CGTGTTGA,0.0871
25,GCACTTTA,0.0763

row,Sequence,binding signal (normalized occupancy)
1,GGTTCCGA,0.0719
2,TCCGCACA,0.0826
3,CGGAATGA,0.0748
4,CGAACGCA,0.0719
5,ACGGAGGG,0.0731
6,ATCAAGGG,0.0755
7,GGTATCGA,0.0769
8,ACAGCGAG,0.0728
9,CGTGGTTC,0.0858
10,AGTGAGAG,0.081
11,CCGCGTAA,0.0729
12,GCCAATAC,0.0791
13,GAACTCCC,0.0709
14,CGTCCTAC,0.0745
15,AAACTAGC,0.0695
16,CCTGCTAC,0.0758
17,CCAGCATA,0.0816
18,AAGACGTC,0.0742
19,ATCAAAAA,0.0723
20,TGGGGAAA,0.0728
21,ACGGTAAT,0.0786
22,ATCGTAGA,0.0797
23,GACTAAAC,0.0764
24,AAACATTC,0.0753
25,CATGGTAC,0.0998

row,Sequence,binding signal (normalized occupancy)
1,CATCGCCA,0.0788
2,CTCACGAG,0.0842
3,GCTTGAGA,0.0708
4,GCTCACGA,0.075
5,CAGATGGC,0.0848
6,ACAGACAT,0.0815
7,ACGCCGCG,0.0773
8,CTGTCGCC,0.0762
9,AGTAAGGA,0.0746
10,CAAGTAAC,0.0735
11,CGCTCAAG,0.0703
12,AGAGGCAT,0.0763
13,GCGTGCAA,0.0963
14,AAAGGGAT,0.0748
15,CAGGACCA,0.0726
16,ATAATCAT,0.0871
17,GATCCAAC,0.0725
18,GGGCTGGA,0.0746
19,ACTTCGGC,0.0678
20,CGAGCCGA,0.0667
21,CTCGGGGA,0.0713
22,ACGTAGAA,0.0765
23,CGCGTTCC,0.075
24,ATACGATG,0.0797
25,GTCATGTA,0.089

row,Sequence,binding signal (normalized occupancy)
1,AGTCACAG,0.0732
2,AACGGAGG,0.0699
3,AAAGCAAG,0.0736
4,CAAGCCCA,0.0752
5,TGAAATAA,0.0855
6,AAACACTG,0.0755
7,ATCTATTA,0.0771
8,AAGGGCCA,0.0716
9,CTGGACAA,0.0742
10,ATACTTTC,0.0743
11,CCAGGTTC,0.0694
12,GGCCACAC,0.0814
13,CATGGGCA,0.0855
14,ACGAGCCG,0.0732
15,AAATAATC,0.0702
16,ATGGCGTA,0.0819
17,ACCGGATC,0.077
18,CATAGCGA,0.0712
19,CGCCGCAG,0.0695
20,GACGTCTA,0.0676
21,CAGAGCGC,0.0678
22,GGCTTTAC,0.0682
23,ATTGCTGG,0.0736
24,CACCCAAG,0.0768
25,AACTAGGA,0.0703

row,Sequence,binding signal (normalized occupancy)
1,CGAGCATA,0.0801
2,ACGCACAA,0.0775
3,CGTGAGGC,0.0793
4,AGTATACG,0.0759
5,GTATGATA,0.0877
6,AGTCAGAA,0.0697
7,AAGCAGAT,0.075
8,CCTGAGAG,0.0683
9,AACCGCTT,0.0681
10,AAATTGTC,0.0726
11,CCGTCTAC,0.0743
12,GGTTAACC,0.0626
13,GTTGCGGA,0.0704
14,CCCGTCGC,0.0748
15,CTTGTTCA,0.0802
16,AACATTAG,0.084
17,ATTAGACC,0.0748
18,CCTCGGGA,0.0708
19,CGAGTTTC,0.0741
20,GATTACCC,0.0775
21,ACGAGGGA,0.0859
22,AGGTCTAG,0.0748
23,AGCAGGAT,0.0756
24,AACTTAGA,0.0798
25,CAGACGCG,0.0719

row,Sequence,binding signal (normalized occupancy)
1,GTGTATAA,0.0894
2,ATATCCCG,0.0823
3,GATGTAGC,0.0756
4,CCACGGCG,0.0744
5,ATTTAGAA,0.0725
6,GTGACCTA,0.0721
7,CCATAAAG,0.0766
8,CCGCATCC,0.0787
9,CGTGAGGA,0.0851
10,GATGAAGA,0.0781
11,CGGGCGTC,0.0677
12,CATTGGCA,0.0773
13,GCCCCTAC,0.0783
14,AGCGCTAG,0.0678
15,CTGGATTA,0.0761
16,ATAATTGC,0.0766
17,TATCCGGA,0.0736
18,CGTTTAAG,0.071
19,CATAGTGG,0.0803
20,CAAGCTCA,0.0677
21,ATCTCGAA,0.0761
22,CGTAAGGA,0.0707
23,TATTATGA,0.0862
24,AGATGAAA,0.0835
25,GCGTACCA,0.0747

row,Sequence,binding signal (normalized occupancy)
1,CACGGTAA,0.077
2,CTACCAAA,0.0708
3,CTTTATTA,0.0798
4,ACGTTACA,0.0874
5,CTATCTCA,0.0746
6,CAACGACA,0.0783
7,CACTCAAA,0.0802
8,AAATCAAT,0.0758
9,ATATTAAG,0.0782
10,AACATGCA,0.0927
11,TGCGATAA,0.0736
12,CTTACTTA,0.0782
13,CTCGGATA,0.0706
14,TCCGTAAA,0.0698
15,ACACACGC,0.103
16,GATATGGA,0.084
17,ATGTCGTC,0.0814
18,CTCTTCCA,0.0726
19,CTATGTGC,0.0816
20,GACAAGCA,0.0747
21,CTTCCTGC,0.0718
22,ACCATTGA,0.0755
23,AGGGAAAT,0.0833
24,TATTGACA,0.0824
25,AGCAGTGG,0.0727

row,Sequence,binding signal (normalized occupancy)
1,ACATCCTG,0.084
2,TAGTAGAA,0.0761
3,GGGCCCAC,0.0708
4,CTACAAAG,0.0689
5,ACTTATCG,0.0741
6,ACTCCCCG,0.0782
7,GCGACCAC,0.0804
8,CCCGTTTA,0.0757
9,ATGAGCCC,0.0757
10,GGGAAGGA,0.0751
11,ACTTTGGG,0.0723
12,AGGCGGTC,0.0748
13,TCATCCGA,0.0783
14,CCGCTTAG,0.0708
15,CAACTACC,0.0747
16,CTCAGTCC,0.0695
17,CCGCCAAC,0.0712
18,ACCCAAAT,0.078
19,ATTGTAGG,0.0783
20,AAGGTCAA,0.0761
21,ATGCGGGG,0.0853
22,CATCGGGA,0.0724
23,AGCCGCTG,0.0655
24,GGCCTAGA,0.0747
25,GAGATAGC,0.0772

row,Sequence,binding signal (normalized occupancy)
1,TGGCGAAA,0.0783
2,CTTAAGGA,0.072
3,GTTTGAGA,0.0749
4,AGTCGCAG,0.0648
5,AGACCCAT,0.078
6,CCTAAAGG,0.0662
7,AGTATTAC,0.0782
8,GGCTAGTA,0.0703
9,ACACTCGC,0.0776
10,AGTTCAGG,0.0784
11,AGGTCCGC,0.0706
12,ACCCCACG,0.0905
13,TCTTCACA,0.077
14,TAAGCAGA,0.0747
15,ATAATTGG,0.0741
16,TACCGAAA,0.072
17,GTAGATTA,0.0766
18,CTACTGCA,0.0732
19,AGCCATAT,0.0877
20,GACTGCCA,0.0784
21,CGACCATC,0.0749
22,ACTCGTCC,0.0706
23,CAGTCAGA,0.0692
24,CACCTCGA,0.0713
25,AAACTCCC,0.073

row,Sequence,binding signal (normalized occupancy)
1,GAATGAAC,0.0733
2,ACAGTCCA,0.0763
3,GGAGAAGA,0.0765
4,CTATAGAA,0.0788
5,CCTCTTAG,0.0678
6,TGCGACAA,0.0767
7,CCCGTTAG,0.0731
8,CTTTCTTC,0.0663
9,GAAGCGAC,0.0698
10,ATTGTCGG,0.0769
11,AAAAGATA,0.0767
12,GCACCGCC,0.0692
13,AAAAATTC,0.0788
14,AGAAGGCG,0.071
15,ATACAACC,0.0773
16,AACTAACA,0.0814
17,ATGGCAAT,0.0843
18,AAAGTGCG,0.0712
19,AGAGTTAA,0.0737
20,GCACCGAC,0.0725
21,CACGGATA,0.0831
22,AGAATTCC,0.0763
23,AGCCAACA,0.0808
24,AACTCAGC,0.0711
25,AATAATCC,0.0765

row,Sequence,binding signal (normalized occupancy)
1,AGGGCCCG,0.0707
2,AGTAGACC,0.073
3,GGATTCAC,0.0757
4,AGTGCACC,0.0743
5,CCAGATAC,0.0776
6,ACATACAC,0.0864
7,AGGTAGAA,0.0764
8,CCACCAAA,0.0705
9,CAATAGGC,0.0693
10,CCCCATAC,0.0855
11,GGTTCCTA,0.0705
12,CTCAGCAC,0.0798
13,CCCACGTC,0.0804
14,ACTGGTCA,0.0714
15,GACGAGTC,0.0712
16,ATGCCAAC,0.0785
17,CTAGGGAC,0.0703
18,CACGCTCC,0.0886
19,GCGCCCAC,0.0744
20,AGCACGAT,0.0857
21,AAGGGTGT,0.0759
22,AGGAAATC,0.0742
23,CTACCTCC,0.0776
24,AGTAAGTG,0.0722
25,CTCTGCTC,0.0677

row,Sequence,binding signal (normalized occupancy)
1,ATTCACGC,0.093
2,CCCACCAC,0.0842
3,AGATGGTA,0.0798
4,ACTAGTCC,0.0743
5,AACTTTGG,0.0711
6,CGCTGAAC,0.0719
7,CTAGACAG,0.0763
8,AATAGTCA,0.0803
9,AAGGCACT,0.071
10,CTCGCTAC,0.0693
11,GAGTGAGA,0.0795
12,ATGCCCAG,0.0765
13,ACAGTGCG,0.0786
14,CGTGGGTA,0.0867
15,CTCAAGAA,0.0729
16,AGAGAGCG,0.0674
17,ATACCTAG,0.0756
18,AGCGTGCA,0.108
19,AAGTGGTA,0.0752
